Experimental data from PubChem BioAssay (NCATS).
Inconclusive means that the source gave no clear call. Such entries were picked first, then a sample of the others. A potency beside an inconclusive call is a rough fit, not a confirmed value. Activity calls are given as the source filed them. The call rests on the fitted dose curve; in most records, active means well fitted cell-killing curve with a large enough effect; inconclusive means small, poorly fitted or top-dose-only effect, or effect the other way; inactive means flat fitted curve, though single readings scatter.

Tested on: OV90
Assay: Primary qHTS to identify gynecologic anti-cancer compounds using libraries of approved drugs and bioactive compounds (AID 1345084); further: nearly all actives have a fitted effect of over 55% in size
Details: Gynecologic cancer cell panel viability, ATPlite luminescence, 48 h; series mostly up to 57.5 µM; activity change, negative = cytotoxicity: at the top concentration
How it was run: (§1)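 Cells, 1,000 per well, plated 16 h, then exposed 48 h at 37 C to compounds. Viability by ATPlite luminescence after 15 min at room temperature.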
On the % scale 0 is the no-effect control and ±100 the full control effect; potency means the concentration at half of the fitted maximal effect; tags describe the fitted curve by direction and shape.

SMILES	activity change, negative = cytotoxicity	Potency
CC1=CCC2C(C)(C)CCCC2(C)C1CC12OC1C(O)C(CO)=CC2O (centres undefined)	inactive: -2.96% [at 38.5 µM]	–
OC[C@H]1O[C@@H](OCc2ccccc2)[C@H](O)[C@@H](O)[C@@H]1O	inactive: -4.31%	–
O=C1COC2(CCN(S(=O)(=O)c3ccc(-c4ccc5cccnc5c4)cc3)CC2)CN1C1CC1	–	inconclusive: 15.8 µM [cytotoxic, partial curve]
CCNC1(C(N)=O)CN(c2nc(C)nc3c(-c4ccc(Cl)cc4)c(-c4ccccc4Cl)nn23)C1	–	inconclusive: 39.8 µM [cytotoxic, single point]
C=C[C@H]1[C@H](O[C@@H]2O[C@H](CO[C@@H]3OC[C@](O)(CO)[C@H]3O)[C@@H](O)[C@H](O)[C@H]2O)OC=C2C(=O)OCC[C@H]21	inactive: -1.74% [at 25.3 µM]	–

Tested on: PA-1
Assay: as above
Details: Gynecologic cancer cell panel viability, ATPlite luminescence, 48 h; series mostly up to 57.5 µM; activity change, negative = cytotoxicity: at the top concentration
How it was run: as §1

SMILES	activity change, negative = cytotoxicity	Potency
CN(C)C(=O)Nc1cccc(-c2ccc(N(C)C)cc2)c1	inactive: 0.0753%	–
O=C1COC2(CCN(S(=O)(=O)c3ccc(-c4ccc5cccnc5c4)cc3)CC2)CN1C1CC1	inactive: 1.66%	–
CC1(CO)CC(O)[C@]2(C(=O)O)CCC34CC3(C=CC3[C@]5(C)C(CC[C@]34C)C(C)(CO)[C@@H](O)[C@H](O)[C@@H]5O)C2C1 (some centres undefined)	–	inconclusive: 20 µM [cytotoxic, single point]
CC(C)Nc1nc(Nc2ccccc2)nc(-c2ccccc2)n1	inactive: -12.5%	–
Cc1ccc(Cl)c(OCC(O)CNC(C)(C)C)c1 (centres undefined)	–	inconclusive: 22.4 µM [cytotoxic, single point]
O=C(O)CCc1nccc2c1[nH]c1ccccc12	–	inconclusive: 31.6 µM [cytotoxic, single point]
CC(=O)SC[C@@H](Cc1ccccc1)C(=O)NCC(=O)OCc1ccccc1	inactive: -4.45%	–

Tested on: SKOV3
Assay: as above
Details: Gynecologic cancer cell panel viability, ATPlite luminescence, 48 h; series mostly up to 57.5 µM; activity change, negative = cytotoxicity: at the top concentration
How it was run: as §1

SMILES	activity change, negative = cytotoxicity	Potency
COc1cc(C2OCC3(O)C(c4ccc(O[C@@H]5O[C@H](CO)[C@@H](O)[C@H](O)[C@H]5O)c(OC)c4)OCC23O)ccc1O (some centres undefined)	inactive: -6% [at 25.3 µM]	–
OC[C@H]1O[C@@H](OCc2ccccc2)[C@H](O)[C@@H](O)[C@@H]1O	inactive: -22.1%	–
C/C=C(/C=C(C)/C=C/C=C/C=C(\C)C(=O)C12OC1C(O)(CCO)NC2=O)C(=O)OC (centres undefined)	inactive: -5.64% [at 25.3 µM]	–
CC(C)(O)C1CC=C(C(=O)OC[C@H]2O[C@@H](Oc3cc(C(=O)O)cc(O)c3O)[C@H](O)[C@@H](O)[C@@H]2O)CC1 (some centres undefined)	–	inconclusive: 20 µM [rising, single point]
CCCn1cc2c(nc(NC(=O)Nc3ccc(OC)cc3)n3nc(-c4ccco4)nc23)n1	–	inconclusive: 39.8 µM [rising, single point]
CC(C)S(=O)(=O)c1ccc2nccc(Nc3ccc4scnc4c3)c2c1	–	active: 12.6 µM
Cn1c2ccc(NC(=O)c3ccccc3)cc2c(=O)n2nc(C(=O)O)cc12	inactive: 2.59% [at 25.3 µM]	–
CN(C)C(=O)Nc1cccc(-c2ccc(N(C)C)cc2)c1	–	inconclusive: 31.6 µM [cytotoxic, single point]
CC(=O)O[C@]1(C(C)=O)CC[C@H]2[C@@H]3C=C(C)C4=CC(=O)CC[C@]4(C)[C@H]3CC[C@@]21C	–	inconclusive: 15.8 µM [rising, single point]
C=C[C@H]1[C@H](O[C@@H]2O[C@H](CO[C@@H]3OC[C@](O)(CO)[C@H]3O)[C@@H](O)[C@H](O)[C@H]2O)OC=C2C(=O)OCC[C@H]21	inactive: 2.54% [at 25.3 µM]	–
CC(C)Nc1nc(Nc2ccccc2)nc(-c2ccccc2)n1	–	inconclusive: 3.16 µM [rising, single point]
COc1cc(/C=C2\CC[C@H]3COC[C@@H](c4cc(F)c(F)c(F)c4)N3C2=O)ccc1-n1cnc(C)c1	–	inconclusive: 0.631 µM [cytotoxic, single point]
CC(=O)O[C@@H]1[C@H](O[C@@H]2O[C@H](CO)[C@@H](O)[C@H](O)[C@H]2O)[C@@H](O[C@@H]2O[C@@H](C)[C@H](O)[C@@H](O[C@@H]3O[C@H](CO)[C@@H](O)[C@H](O)[C@H]3O)[C@H]2O)[C@H](OC(=O)[C@]23CCC(C)(C)C[C@H]2C2=CCC4[C@@]5(C)C[C@H](O)[C@H](O[C@@H]6O[C@H](C(=O)O)[C@@H](O)[C@H](O)[C@H]6O)[C@@](C)(C(=O)O)C5CC[C@@]4(C)[C@]2(C)CC3)O[C@@H]1C (some centres undefined)	–	inconclusive: 3.16 µM [rising, single point]
O=C(O)C1=CO[C@@H](O[C@@H]2O[C@H](CO)[C@@H](O)[C@H](O)[C@H]2O)[C@@H]2C(CO)=CC[C@H]12	inactive: 8.8% [at 38.5 µM]	–

Tested on: Tov-21-G
Assay: as above
Details: Gynecologic cancer cell panel viability, ATPlite luminescence, 48 h; activity change, negative = cytotoxicity: at 57.5 µM (top of the series) unless noted
How it was run: as §1

SMILES	activity change, negative = cytotoxicity	Potency
CC1=CCC2C(C)(C)CCCC2(C)C1CC12OC1C(O)C(CO)=CC2O (centres undefined)	inactive: 19.4% [at 38.5 µM]	–
CC(C)S(=O)(=O)c1ccc2nccc(Nc3ccc4scnc4c3)c2c1	–	inconclusive: 31.6 µM [cytotoxic, partial curve, poor fit]
Cc1ccc(Cl)c(OCC(O)CNC(C)(C)C)c1 (centres undefined)	–	inconclusive: 10 µM
CC(C)(C)c1ccc(C(=O)CCCCl)cc1	inactive: -14.6%	–

Tested on: Tov112D
Assay: as above
Details: Gynecologic cancer cell panel viability, ATPlite luminescence, 48 h; series mostly up to 57.5 µM; activity change, negative = cytotoxicity: at the top concentration
How it was run: as §1

SMILES	activity change, negative = cytotoxicity	Potency
CC(C)(C)NC(=O)[C@H]1CC[C@H]2[C@@H]3CC[C@H]4NC(=O)CC[C@]4(C)[C@H]3CC[C@]12C	inactive: -2.02%	–
CC(=O)NC[C@H]1CN(c2ccc(N3CCSCC3)c(F)c2)C(=O)O1	inactive: -2.16%	–
Cc1ccc(Cl)c(OCC(O)CNC(C)(C)C)c1 (centres undefined)	–	inconclusive: 6.31 µM
CC(=O)SC[C@@H](Cc1ccccc1)C(=O)NCC(=O)OCc1ccccc1	inactive: 3.48%	–
